Activity change, negative = inhibition data for 29 molecules are collected here from PubChem BioAssay AID1745853 (National Center for Advancing Translational Sciences (NCATS), 2022).

Test in all cases: Primary Screen for Target Class Profiling of Small Molecule Inhibitors of Methyltransferases
The target in experiment [1] is Glycine N-methyltransferase (Homo sapiens) (UniProt Q14749). The note with it: purified enzyme, MTase-Glo SAH luminescence; measured here: GNMT inhibition; at 40 µM; stronger effect = lower value. A digest of the protocol: (§1)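 Each enzyme was reacted with SAM and its substrate, with compounds tested once at 40 uM; SAH formed was read by MTase-Glo luminescence.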
In experiment [2] the target is Guanidinoacetate N-methyltransferase (Homo sapiens) (UniProt Q14353). The following applies: purified enzyme, MTase-Glo SAH luminescence; measured here: GAMT inhibition; at 40 µM; stronger effect = lower value. A digest of the protocol:
as §1

The target in experiment [3] is Histamine N-methyltransferase (Homo sapiens) (UniProt P50135). The following applies: purified enzyme, MTase-Glo SAH luminescence; measured here: HNMT inhibition; at 40 µM; stronger effect = lower value. The method in brief: as §1
Experiment [4] concerns the target Nicotinamide N-methyltransferase (Homo sapiens) (UniProt P40261). The note with it: purified enzyme, MTase-Glo SAH luminescence; measured here: NNMT inhibition; at 40 µM; stronger effect = lower value. The method in brief:
as §1

Experiment [5] deals with Phenylethanolamine N-methyltransferase (Homo sapiens) (UniProt P11086). The following applies: purified enzyme, MTase-Glo SAH luminescence; measured here: PNMT inhibition; at 40 µM; stronger effect = lower value. A digest of the protocol:
as §1

Some of the results follow. The main result of the screen is listed elsewhere. These columns were measured beside it and carry no call.
On the % scale 0 is the no-effect control and ±100 the full control effect.

`Cc1cccc(NC(=O)N[C@H]2CN(C)c3ccccc3C(c3ccccc3)=N2)c1`: the activity change, negative = inhibition in experiment [1] is -6.97%; in experiment [2], -16.2%; in experiment [3] it was 2.46%; in experiment [4], -36%; in experiment [5] it was -4.32%.

For `CCOCCCNC(=O)N1Cc2ccccc2-n2cccc2C1c1ccccc1Cl` (configuration not stated), the activity change, negative = inhibition in experiment [1] amounted to 8.89%; in experiment [2], 0%; in experiment [3], 7.73%; in experiment [4], 6.72%; in experiment [5], 3.44%.

With `CCCNC(=O)N1Cc2ccccc2-n2cccc2C1c1ccc(F)cc1` (configuration not stated), the activity change, negative = inhibition in experiment [1] was -1.52%; in experiment [2], 0.07%; in experiment [3] it was -0.051%; in experiment [4] it was -8.5%; in experiment [5] it was 1.76%.

Take `CCOC(=O)CNC(=O)N1Cc2ccccc2-n2cccc2C1c1ccccc1` (configuration not stated): the activity change, negative = inhibition in experiment [1] worked out at 10.2%; in experiment [2], 0.747%; in experiment [3], 6.22%; in experiment [4], 5.21%; in experiment [5], 7.81%.

As for `CCOc1ccc(C2c3cccn3-c3ccccc3CN2C(=O)Nc2ccc3c(c2)OCCO3)cc1` (configuration not stated), the activity change, negative = inhibition in experiment [1] stood at 2.16%; in experiment [2], 0%; in experiment [3], 3.15%; in experiment [4], 3.52%; in experiment [5], 7.09%.

Turning to `C=CCN1CCC2(C)c3cc(O)ccc3C[C@H]1[C@H]2C`, the activity change, negative = inhibition was -0.319% in experiment [1] and -61.2% in experiment [3].

On to `C=C(C)[C@H]1CN[C@H](C(=O)O)[C@H]1CC(=O)O`, for which the activity change, negative = inhibition is 5.71% in experiment [1]; 12.9% in experiment [2]; 10.7% in experiment [3]; -2.83% in experiment [4]; 2.68% in experiment [5].

As for `NC1CC1c1ccccc1` (configuration not stated), the activity change, negative = inhibition in experiment [1] is -3.8%; in experiment [2], 3.31%; in experiment [3], -12.2%; in experiment [4], -7.58%; in experiment [5], -24.7%.

`OC[C@H]1C[C@@H](NC2CCC2)[C@H](O)[C@@H]1O`: the activity change, negative = inhibition was -0.523% in experiment [1]; -0.976% in experiment [2]; 1.72% in experiment [3]; 3.78% in experiment [4]; -7.56% in experiment [5].

For `Cc1ccc(C2c3cccn3-c3ccccc3CN2C(=O)Nc2ccccc2C)cc1` (configuration not stated), the activity change, negative = inhibition in experiment [1] was 1.96%; in experiment [2], 0.272%; in experiment [3] it was -5.4%; in experiment [4], -1.96%; in experiment [5] it was -1.45%.

As to `O=C(NC1CCCC1)N1Cc2ccccc2-n2cccc2C1c1cc(F)cc(F)c1` (configuration not stated), the activity change, negative = inhibition in experiment [1] was determined as 12.2%; in experiment [2], 0%; in experiment [3] it was 6.81%; in experiment [4], 1.23%; in experiment [5] it was 7.36%.

On to `CC1=C2C(=O)C3[C@@H](CC=C4C[C@@H](O)CC[C@@]43C)[C@@H]2CC[C@]12O[C@@H]1C[C@H](C)CN[C@H]1[C@H]2C` (some centres not stated), for which the activity change, negative = inhibition in experiment [1] is 4.37%; in experiment [2], 8.57%; in experiment [3] it was 3.09%; in experiment [4], -8.38%; in experiment [5], 3.48%.

With `CCc1ccccc1NC(=O)N1Cc2ccccc2-n2cccc2C1c1ccc(N(C)C)cc1` (configuration not stated), the activity change, negative = inhibition in experiment [1] stood at 2.32%; in experiment [2] it was 0.344%; in experiment [3] it was 1.47%; in experiment [4], 2.41%; in experiment [5], 5.9%.

In the case of `COCCCNC(=O)N1Cc2ccccc2-n2cccc2C1c1ccc(OC)cc1` (configuration not stated), the activity change, negative = inhibition was found to be 8.87% in experiment [1]; 0% in experiment [2]; 1.23% in experiment [3]; 0.332% in experiment [4]; 1.63% in experiment [5].

Regarding `COc1ccc2c3c4n(c2c1)[C@@H](C=C(C)C)OOC(C)(C)C[C@@H]4N1C(=O)[C@@H]2CCCN2C(=O)[C@]1(O)[C@H]3OCC=C(C)C`, the activity change, negative = inhibition in experiment [1] is 5.17%; in experiment [2], 0.601%; in experiment [3] it was 4.34%; in experiment [4] it was -15.1%; in experiment [5], 5.47%.

Consider `CCCCN1[C@@H]2CC[C@H]1CC(OC(c1ccc(F)cc1)c1ccc(F)cc1)C2` (some centres not stated), for which the activity change, negative = inhibition in experiment [1] is 4.03%; in experiment [2] it was 16.1%; in experiment [3], -51.7%; in experiment [4], -20.6%; in experiment [5], 2.44%.

Consider `O=C1NCCCCCN(Cc2cccnc2)[C@H]2CCC[C@@H]12`, for which the activity change, negative = inhibition in experiment [1] is -1.75%; in experiment [2] it was 1.67%; in experiment [3], 1.01%; in experiment [4], 3%; in experiment [5], 6.17%.

For the molecule `O=C(NCc1ccco1)N1Cc2ccccc2-n2cccc2C1c1ccc(Cl)cc1` (configuration not stated), the activity change, negative = inhibition was 1.47% in experiment [1]; 0.658% in experiment [2]; 2.43% in experiment [3]; -1.66% in experiment [4]; 5.19% in experiment [5].

Take `Cc1ccc(C2c3cccn3-c3ccccc3CN2C(=O)Nc2cc(C)cc(C)c2)cc1` (configuration not stated): the activity change, negative = inhibition in experiment [1] is 3.11%; in experiment [2] it was -4.26%; in experiment [3], -0.361%; in experiment [4], -6.16%; in experiment [5] it was -4.85%.

On to `O=[S+]1([O-])NCC2(CCN(Cc3ccccn3)C2)Nc2ccccc21` (configuration not stated), for which the activity change, negative = inhibition is -5.42% in experiment [1]; -7.26% in experiment [2]; -3.02% in experiment [3]; -11.2% in experiment [4]; -6.65% in experiment [5].

For the molecule `Cn1cc(CNCC2(CO)C[C@@H](O)[C@@H](O)C2)c2ccccc21` (some centres not stated), the activity change, negative = inhibition in experiment [1] is -2.83%; in experiment [2] it was -2.13%; in experiment [3], -5.14%; in experiment [4] it was -8.78%; in experiment [5], 11.6%.

As for `COc1ccc(C2c3cccn3-c3ccccc3CN2C(=O)Nc2ccc(F)cc2F)cc1OC` (configuration not stated), the activity change, negative = inhibition in experiment [1] is 5.58%; in experiment [2], 0%; in experiment [3], -1.34%; in experiment [4], -2.18%; in experiment [5], 2.77%.

`C/C=C(\C)C(=O)OC1CC2C(CC=C3CC(OC4CC(OC)C(OC5CC(OC)C(OC6CC(OC)C(OC7CC(OC)C(O)C(C)O7)C(C)O6)C(C)O5)C(C)O4)CCC32C)C2(O)CCC(C(C)=O)C12C` (configuration not stated): the activity change, negative = inhibition in experiment [1] is 0%; in experiment [2] it was 6.92%; in experiment [3], 1.52%; in experiment [4], -5.1%; in experiment [5], 5.69%.

`Cc1ccccc1C1c2cccn2-c2ccccc2CN1C(=O)Nc1cccc(C)c1C` (configuration not stated): the activity change, negative = inhibition in experiment [1] was 0.735%; in experiment [2], 1.94%; in experiment [3], -4.08%; in experiment [4], 3.1%; in experiment [5], 2.13%.

On to `CCOc1ccc(C2c3cccn3-c3ccccc3CN2C(=O)Nc2ccc(C)c(C)c2)cc1` (configuration not stated), for which the activity change, negative = inhibition in experiment [1] was -4.18%; in experiment [2] it was 0%; in experiment [3] it was 7.2%; in experiment [4] it was 6.23%; in experiment [5], 2.23%.

On to `COc1ccc(Cl)cc1NC(=O)N1Cc2ccccc2-n2cccc2C1c1ccc(N(C)C)cc1` (configuration not stated), for which the activity change, negative = inhibition in experiment [1] was 5.55%; in experiment [2], 3.41%; in experiment [3], -6.17%; in experiment [4], 1.06%; in experiment [5] it was 5.29%.

As to `CCOc1ccc(NC(=O)N2Cc3ccccc3-n3cccc3C2c2cccs2)cc1` (configuration not stated), the activity change, negative = inhibition was 9.04% in experiment [1]; 1.8% in experiment [2]; 2% in experiment [3]; 3.95% in experiment [4]; 7.66% in experiment [5].

For `C=C(CO)[C@@]12O[C@@H]1[C@@]1(C)C(=CC2=O)CC[C@@H](O)[C@@H]1C`, the activity change, negative = inhibition in experiment [1] is 0%; in experiment [2], 7.14%; in experiment [3], 12.1%; in experiment [4], -4.33%; in experiment [5], 3.52%.

For the molecule `CCOc1ccccc1NC(=O)N1Cc2ccccc2-n2cccc2C1c1cccc(C)c1` (configuration not stated), the activity change, negative = inhibition in experiment [1] is 5.8%; in experiment [2] it was 2.23%; in experiment [3], 6.56%; in experiment [4], 1.45%; in experiment [5] it was -15.1%.
